Measured values as given in patent US20220220212A1 (RESEARCH FOUNDATION FOR THE STATE UNIVERSITY OF NEW YORK, published 2022).

How the values were obtained:
[1] = target: T1, biotinylated N-terminal domain CCR2 peptide (murine, biotinylated (position not given)); assay: phage ELISA on the N-terminal peptide
T1 construct: Bought from ABclonal; also called CCR2 N-terminal domain; CCR2 N-terminus
T1 peptide: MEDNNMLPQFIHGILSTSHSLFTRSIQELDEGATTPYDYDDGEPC
Procedure: (§1) Nunc MaxiSorp 96-well plates were coated with NeutrAvidin at 5 μg/mL and incubated overnight at 4° C. The plate was thoroughly washed with 0.1% PBS-Tween (PBST), and 5 μg/mL biotinylated N-terminal domain CCR2 peptide ([…] (SEQ ID NO:58); ABclonal, Woburn, Mass.) added and incubated for 1 h at room temperature. The wells were washed with 0.1% PBST and then blocked with casein blocking buffer for 1 h at room temperature. The wells were washed with 0.1% PBST followed by incubation of serially diluted scFv for 1 h at room temperature before being washed five times with 0.1% PBST. Washes were followed by the addition of 100 uL of the respective horse-radish peroxidase (HRP)-linked monoclonal antibody (mAb) for 1 h at room temperature with rocking. An anti-M13 mAb was used to detect phages (#27-9421-01, GE healthcare, Chicago, Ill.) and an anti-flag mAb was used to detect scFv (#A8592, Sigma Aldrich, St. Louis, Mo.). The wells were washed with 0.1% PBST followed by the addition of TMB-ELISA substrate. After 10 min incubation, 2 M H₂SO₄ was added to stop the reaction. The absorbance was measured at 450 nm with a FilterMax F3 & F5 multi-mode microplate reader (Molecular Devices, Sunnyvale, Calif.). A 1:1 binding ratio Hill model was used to fit the binding interaction data.

[2] = target: T2, mouse CCR2 on cells (RAW 264.7 murine macrophages, 4T1 breast cancer cells) (murine, UniProt P51683 1-373); assay: flow cytometry on RAW 264.7 cells, DyLight 650 labelled scFv
T2 construct: whole, on cells; Endogenous receptor on cell lines; also called cellular CCR2; CCR2 chemokine receptor
Procedure: (§2) FIG. 13. […] The liposomes were incubated with DyLight 650 NHS Ester labeled 58C-scFv at 4° C. overnight. Cells were detached with 5 mM EDTA and re-suspended in PBS to a concentration of 50,000 cells per 300 μL. The cells were incubated with various dilutions of DyLight 650 NHS Ester labeled 58C-scFv (free, low degree of valency, or high degree of valency) for 1 h at 4° C. Cells were washed three times with 5% BSA and analyzed in the APC channel of a MACSQuant Analyzer 10 flow cytometer (Miltenyi Biotec, Bergisch Gladbach, Germany).
Cells were detached with 5 mM EDTA and re-suspended in PBS to a concentration of 50,000 cells per 300 μL. Cells were plated in a 48-well plate and incubated for 30 min at 4° C. After removing the PBS solution, the cells were incubated with various dilutions of DyLight 650 NHS Ester labeled 58C-scFv for 1 h at 4° C. Cells were washed three times with 5% BSA, detached with EDTA, and analyzed in the APC channel of a MACSQuant Analyzer 10 flow cytometer (Miltenyi Biotec, Bergisch Gladbach, Germany).

[3] = target: T2, mouse CCR2 on cells (RAW 264.7 murine …); assay: cell-based or functional assay
[4] = target: T1, biotinylated N-terminal domain CCR2 …; assay: ELISA; biotinylated NTD peptide on NeutrAvidin plate, serially diluted scFv, anti-flag HRP detection, 1:1 Hill fit
Procedure: as §1

[5] = target: T2, mouse CCR2 on cells (RAW 264.7 murine …); assay: flow cytometry on RAW 264.7 cells; reference: low valency 58C-scFv on liposomes
Procedure: as §2

[6] = target: T2, mouse CCR2 on cells (RAW 264.7 murine …); assay: flow cytometry on RAW 264.7 cells, DyLight 650 labelled scFv on liposomes
Procedure: as §2

[7] = target: T2, mouse CCR2 on cells (RAW 264.7 murine …); assay: flow cytometry on RAW 264.7 cells; reference: free 58C-scFv monomer
Procedure: as §2

B1: phage clone 58C (scFv)
scFv: [about 100 residues skipped]GKSSGSGSESKASEVQLLESGAEVKKPGASVKVSCKTSGYTFTTYDIYWMRLATGQRLEWMGWVNPDNGKTDYAQKFQGRVTISRDSSINTVFMELSNLRLEDTAIYFCARALTRWQQSPLGYWGQGTLVTVSS
notes: also called 58C (phage)
[1]
  binding result: binds

B2: 58C-scFv (scFv)
scFv: DYKDDDDKL[about 100 residues skipped]GKSSGSGSESKASEVQLLESGAEVKKPGASVKVSCKTSGYTFTTYDIYWMRLATGQRLEWMGWVNPDNGKTDYAQKFQGRVTISRDSSINTVFMELSNLRLEDTAIYFCARALTRWQQSPLGYWGQGTLVTVSSVEASAAALDYKDDDDKLDHHHHHH
notes: For flow cytometry the protein was labelled with DyLight 650 NHS Ester; also called NTD-scFv; scFv 58C
[2]
  Kd: 1270 nM
[3]
  M1/M2 ratio over negative control (IL-6/Arg-1), RAW 264.7, RT-PCR: 340000 fold
  M1/M2 ratio over negative control (IL-6/Mgl2), RAW 264.7, RT-PCR: 1.7e+06 fold
  M1/M2 ratio over negative control (iNOS/Arg-1), RAW 264.7, RT-PCR: 10000 fold
  M1/M2 ratio over negative control (iNOS/Mgl2), RAW 264.7, RT-PCR: 51000 fold
[4]
  Kd: 59.8 nM

B3: high valency 58C-scFv attached to liposomes (other)
scFv: DYKDDDDKL[about 100 residues skipped]GKSSGSGSESKASEVQLLESGAEVKKPGASVKVSCKTSGYTFTTYDIYWMRLATGQRLEWMGWVNPDNGKTDYAQKFQGRVTISRDSSINTVFMELSNLRLEDTAIYFCARALTRWQQSPLGYWGQGTLVTVSSVEASAAALDYKDDDDKLDHHHHHH
modifications: C-terminal hexa-histidine tag bound to DGS-NTA(Ni) lipid of the liposome; DyLight 650 NHS Ester label
notes: also called high degree of valency; high ligand density
[5]
  fold increase in binding affinity against the low valency formulation: ~1.75 fold
[6]
  Kd: 159 nM
[7]
  fold increase in binding affinity against free 58C-scFv: 8 fold

B4: low valency 58C-scFv attached to liposomes (other)
scFv: DYKDDDDKL[about 100 residues skipped]GKSSGSGSESKASEVQLLESGAEVKKPGASVKVSCKTSGYTFTTYDIYWMRLATGQRLEWMGWVNPDNGKTDYAQKFQGRVTISRDSSINTVFMELSNLRLEDTAIYFCARALTRWQQSPLGYWGQGTLVTVSSVEASAAALDYKDDDDKLDHHHHHH
modifications: C-terminal hexa-histidine tag bound to DGS-NTA(Ni) lipid of the liposome; DyLight 650 NHS Ester label
notes: also called low degree of valency; low ligand density
[6]
  Kd: 278 nM

B5: phage clone 37B (scFv)
scFv: LEVQLVESGAEVKKPGASVKVSCKASGYTFTSYYMHWVRQAPGQGLEWMGIINPSGGSTSYAQKFQGRVTMTRDTSTSTVYMELSSLRSEDTAVYYCARDGNWFDPWGQGTLVTVSSGEGKSSGSGSESKAS[about 100 residues skipped]TFGGGTKLDIK
notes: also called 37B-scFv
[1]
  binding result: binds
